{"source": "PubChem BioAssay AID651820", "about": "(National Center for Advancing Translational Sciences (NCATS), 2012)", "note": "Screen size: about 340,000 compounds; about 12,000 (3.5%) were called active. This list was built around the results that the source calls inconclusive (neither active nor inactive); the mix of calls is not that of the screen. Calls follow the shape of the dose curve; as a rule, active = well fitted inhibition curve with a large enough effect; inconclusive = small, poorly fitted or top-dose-only effect, or another doubt; inactive = no such curve, though single readings can be large or run the other way. No potency is given beside an inconclusive call; the fits are too rough. Potency is read from the fitted curve at half-maximal effect; tags tell the direction and shape of the fitted curve.", "data": [{"test": "qHTS Assay for Inhibitors of Hepatitis C Virus (HCV)", "conditions": "Huh7.5.1 HCVcc-Cre (HCVcc is cell-culture hepatitis C virus) infection, luciferase reporter, 44 h; series mostly up to 41.8 µM", "procedure,_shortened": "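After 44 h co-culture of compound, cells and HCVcc-Cre (~0.5 moi), substrate is added for 15 min at room temperature and luciferase measured over 15 sec. Cells were seeded at 1,000/well and pre-cultured 4 h.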", "values": [{"smiles": "COc1ccccc1C(=O)NNC1=NS(=O)(=O)c2ccccc21", "Potency": "inactive"}, {"smiles": "CCOC(=O)c1c(NC(=O)c2ccncc2)sc(C)c1C", "Potency": "inconclusive [inhibitor, full curve, poor fit]"}, {"smiles": "COc1ccc(-c2cn3cc(C)ccc3n2)cc1OC", "Potency": "inconclusive [inhibitor, single point]"}, {"smiles": "N#Cc1ccccc1OCC(=O)NNC(=O)CNC(=O)c1ccc(Br)o1", "Potency": "inactive"}, {"smiles": "COc1cc(CCCN2C(=S)NC[C@@H]2c2ccccc2)cc(OC)c1OC", "Potency": "inconclusive [inhibitor, single point]"}, {"smiles": "COc1ccccc1NC(=O)c1ccc(-c2ccccc2F)o1", "Potency": "inconclusive [inhibitor, single point]"}, {"smiles": "O=c1[nH]c2c(c3c1CCCC3)CCCC2", "Potency": "inconclusive [inhibitor, single point]"}, {"smiles": "COc1cc(CNCc2ccccc2)c(Br)cc1OC1CCCC1", "Potency": "inconclusive [inhibitor, single point]"}, {"smiles": "COc1ccc([C@H]2CC(=O)C=C(c3cccc4c3sc3ccccc34)C2)cc1OC", "Potency": "inconclusive [inhibitor, partial curve]"}, {"smiles": "CC(Cc1ccccn1)NC(=O)c1ccc(OC2CCN(CCc3ccccc3)CC2)cc1", "note": "(configuration not stated)", "Potency": "inconclusive [inhibitor, partial curve]"}, {"smiles": "CCOc1ccc(NC(=O)c2ccc(OCC3CCCO3)cc2)cc1S(=O)(=O)N(CC)CC", "note": "(configuration not stated)", "Potency": "inconclusive [inhibitor, partial curve]"}, {"smiles": "N=C1C(c2nc(-c3ccc(Cl)cc3)cs2)=C(O)CN1NC(=O)c1ccc(O)cc1", "Potency": "inactive"}, {"smiles": "CCOc1ccc(NC(=O)CC2C(=O)N(C)C(=S)N2Cc2ccc3c(c2)OCO3)cc1", "note": "(configuration not stated)", "Potency": "inconclusive [inhibitor, single point]"}, {"smiles": "COCCn1c(SCC(=O)Nc2ccc(Cl)cn2)nc2ccccc21", "Potency": "inconclusive [inhibitor, partial curve]"}, {"smiles": "CCC(C)(C)NC(=O)c1ccc2c(c1)S(=O)(=O)c1ccccc1C2=O", "Potency": "inconclusive [inhibitor, partial curve]"}, {"smiles": "O=C(NN1CCOCC1)NC12CC3CC(CC(C3)C1)C2", "Potency": "inactive"}, {"smiles": "CCN(CC)S(=O)(=O)c1ccc(N2CCOCC2)c(NC(=O)C2CCCO2)c1", "note": "(configuration not stated)", "Potency": "inactive"}, {"smiles": "CN1C(=O)CC(N2CCN(c3ccc(Cl)cc3)CC2)C1=O", "note": "(configuration not stated)", "Potency": "inactive"}, {"smiles": "O=C(OCc1ccccc1)N1CCOCCOCCN(C(=O)OCc2ccccc2)CCOCCOCC1", "Potency": "inactive"}, {"smiles": "CC(Sc1nc2ccccc2c(=O)n1C)C(=O)Nc1ccc2c(c1)OCCO2", "note": "(configuration not stated)", "Potency": "active: 10 µM"}, {"smiles": "O=S(=O)(c1ccc(SCCOc2ccc(Br)cc2)nc1)N1CCCC1", "Potency": "active: 5.62 µM"}, {"smiles": "Cc1ccc(-c2nn3nnnc3c3ccccc23)cc1C", "Potency": "inactive"}, {"smiles": "Cc1cccc(N2CCN(C(=O)c3ccc(CS(=O)Cc4cccc(Cl)c4)o3)CC2)c1C", "note": "(configuration not stated)", "Potency": "inconclusive [inhibitor, single point]"}, {"smiles": "CCOC(=O)C1(CCc2ccccc2)CCN(Cc2csc(C(C)=O)c2)CC1", "Potency": "active: 6.31 µM"}, {"smiles": "Oc1c(CN2CCCCC2)cc(Br)c2cccnc12", "Potency": "inconclusive [inhibitor, partial curve]"}, {"smiles": "Cc1ccc(COc2ccc(S(=O)(=O)N3CCCC3)cc2C(N)=O)cc1", "Potency": "inconclusive [inhibitor, single point]"}, {"smiles": "COc1cc(NC(=O)Cn2cnc3c(OCc4ccccc4)ncnc32)cc(OC)c1OC", "Potency": "inconclusive [inhibitor, single point]"}, {"smiles": "CC1CCCN(CCCNC(=O)c2ccc3c(c2)N(Cc2ccccc2F)C(=O)c2ccccc2S3(=O)=O)C1", "note": "(configuration not stated)", "Potency": "active: 10 µM"}, {"smiles": "O=C(/C=C/c1ccccc1)c1ccc2c(c1)OCO2", "Potency": "inactive"}, {"smiles": "O=C(NNC(=O)C(c1ccccc1)c1ccccc1)c1ccccn1", "Potency": "active: 6.31 µM"}, {"smiles": "COc1ccc(N2C(=O)C(Cl)=C(Nc3c(C)n(C)n(-c4ccccc4)c3=O)C2=O)cc1", "Potency": "inactive"}, {"smiles": "COc1ccc(S(=O)(=O)NCC(=O)N(CC(=O)NCc2ccco2)Cc2ccc(F)cc2)cc1", "Potency": "inconclusive [inhibitor, single point]"}, {"smiles": "COC(=O)c1ccc(NC(=O)CCS(=O)(=O)c2ccc(Br)cc2)cc1", "Potency": "inactive"}, {"smiles": "CCOc1ccc(-c2nc(-c3ccc(OC)cc3)no2)cc1OCC", "Potency": "active: 7.94 µM"}, {"smiles": "Cc1ccc(C)c(-c2[nH]ncc2CN2CCCC(CO)(Cc3ccccc3C)C2)c1", "note": "(configuration not stated)", "Potency": "active: 12.6 µM"}, {"smiles": "CN(Cc1ccc2c(c1)OCCO2)C(=O)CSc1ncnc2sccc12", "Potency": "inconclusive [inhibitor, single point]"}, {"smiles": "COc1ccccc1NS(=O)(=O)c1cc(NC(=O)CNC(=O)c2cc(C)cc(C)c2)ccc1C", "Potency": "inconclusive [inhibitor, single point]"}, {"smiles": "Nc1c(C(=O)Nc2ccc3c(c2)OCCO3)nnn1Cc1ccccc1Cl", "Potency": "inconclusive [inhibitor, partial curve]"}, {"smiles": "COc1ccc(-c2cc(C(=O)Nc3nc4ccccc4s3)c3ccccc3n2)cc1OC", "Potency": "inactive"}, {"smiles": "Cc1ccnc(NC(=O)c2cccc(S(=O)(=O)N3CCN(c4ccccc4)CC3)c2)c1", "Potency": "inconclusive [inhibitor, partial curve]"}, {"smiles": "c1ccc(-c2n[nH]c3ccccc23)cc1", "Potency": "inconclusive [inhibitor, single point]"}, {"smiles": "Cc1ccc(NC(=O)c2ccco2)c(NC(=O)c2ccc(Cl)cc2)c1", "Potency": "inconclusive [inhibitor, partial curve]"}, {"smiles": "CCCc1nnc(SCC(=O)N2CCCCC2C)n1CC", "note": "(configuration not stated)", "Potency": "inactive"}, {"smiles": "CCOC(=O)c1cc(C)sc1NC(=O)CCC(=O)O", "Potency": "inconclusive [inhibitor, single point]"}, {"smiles": "CCc1ccccc1NC(=O)c1ccc([N+](=O)[O-])s1", "Potency": "inconclusive [inhibitor, partial curve, poor fit]"}, {"smiles": "Cc1ccc(CN2CCC(n3nccc3NC(=O)CCOc3ccccc3)CC2)cc1C", "Potency": "inconclusive [inhibitor, partial curve]"}, {"smiles": "NS(=O)(=O)c1ccc(NC(=S)NC(=O)c2ccco2)cc1", "Potency": "inactive"}, {"smiles": "CCOc1ccccc1N1CCN(c2nc3ccccc3nc2C(C#N)C(=O)OC(C)C)CC1", "note": "(configuration not stated)", "Potency": "inconclusive [inhibitor, single point]"}, {"smiles": "Cc1cccc(NS(=O)(=O)c2cc3c4c(c2)CC(=O)N4CCC3)c1C", "Potency": "inconclusive [inhibitor, partial curve]"}, {"smiles": "CCc1ccc(-c2nc(CSCC(=O)N3CCN(c4ncccn4)CC3)c(C)o2)cc1", "Potency": "inconclusive [inhibitor, full curve, poor fit]"}, {"smiles": "Cc1cc(C)c2nc(SC(C)C(=O)NCC(=O)Nc3ccc(F)c(F)c3F)cc(C)c2c1", "note": "(configuration not stated)", "Potency": "inconclusive [inhibitor, full curve, poor fit]"}, {"smiles": "CC(=O)Nc1ccc(OCC(=O)NCc2ccccc2)cc1", "Potency": "inactive"}, {"smiles": "CCCn1c(=S)[nH]c2cc(C(=O)NCC3CCCO3)ccc2c1=O", "note": "(configuration not stated)", "Potency": "inconclusive [inhibitor, partial curve, poor fit]"}, {"smiles": "O=C(CN(Cc1ccco1)C(=O)c1ccc(F)cc1)Nc1ccccc1Br", "Potency": "inconclusive [inhibitor, single point]"}, {"smiles": "Cc1cccc2nc(-c3ccco3)c(Nc3ccc4c(c3)OCO4)n12", "Potency": "inactive"}, {"smiles": "CC(C(=O)NC1CCCC1)N(C(=O)c1snc(C(N)=O)c1N)c1ccc2c(c1)OCCO2", "note": "(configuration not stated)", "Potency": "inconclusive [inhibitor, full curve, poor fit]"}, {"smiles": "CCOC(=O)N1CCN(S(=O)(=O)c2ccc(C(=O)NNc3nc4c(C)cc(C)cc4s3)cc2)CC1", "Potency": "active: 11.2 µM"}, {"smiles": "CCOC(=O)C1CCCN(S(=O)(=O)c2ccc(F)c(C(=O)Nc3ccc(F)c(F)c3)c2)C1", "note": "(configuration not stated)", "Potency": "inconclusive [inhibitor, single point]"}, {"smiles": "CCCCc1nc2ccccc2c(=O)n1-c1ccc(Cl)cc1[N+](=O)[O-]", "Potency": "inactive"}, {"smiles": "CCN(CC)C(=O)Cn1cc(C(=O)C(=O)NCCCN2CCCCC2)c2ccccc21", "Potency": "inconclusive [inhibitor, single point]"}, {"smiles": "COC(=O)c1ccc(N2CCN(C)CC2)c(NC(=O)c2cc3ccccc3o2)c1", "Potency": "inconclusive [inhibitor, full curve]"}, {"smiles": "O=[N+]([O-])c1ccc(Cl)c2c1C1C=CCC1C(c1ccccn1)N2", "note": "(configuration not stated)", "Potency": "inactive"}, {"smiles": "CCOc1cc(S(=O)(=O)n2cnc(C)c2)ccc1Cl", "Potency": "inactive"}, {"smiles": "CCC(=O)Nc1nc2c(OC)ccc(OC)c2s1", "Potency": "active: 11.2 µM"}, {"smiles": "CCOC(=O)c1cc(C#N)c(C)nc1N(CC)CC", "Potency": "inconclusive [inhibitor, single point]"}, {"smiles": "Cc1ccc2ccccc2c1NC(=O)CNC1CCCCC1", "Potency": "inconclusive [inhibitor, single point]"}, {"smiles": "O=C(NCc1ccccc1Cl)c1ccncc1", "Potency": "inconclusive [inhibitor, single point]"}, {"smiles": "C=Cn1cc[n+](CC(=O)c2ccc(Br)cc2)c1", "Potency": "inactive"}, {"smiles": "CS(=O)(=O)c1ccc(Sc2nc3ccccc3[nH]2)c([N+](=O)[O-])c1", "Potency": "inactive"}, {"smiles": "O=[N+]([O-])c1cc(/C=N/n2c(-c3cccnc3)n[nH]c2=S)ccc1Cl", "Potency": "inconclusive [inhibitor, full curve, poor fit]"}, {"smiles": "CCCC(C)CO", "note": "(configuration not stated)", "Potency": "inactive"}, {"smiles": "NC(=O)CC(NC(=O)c1ccccc1)c1ccc(N2CCC(Cc3ccccc3)CC2)c([N+](=O)[O-])c1", "note": "(configuration not stated)", "Potency": "inconclusive [inhibitor, single point]"}]}]}
